In PubChem BioAssay AID493208 (National Center for Advancing Translational Sciences (NCATS), 2011):
Hit rate of the full screen: of about 44,000 compounds, about 340 (0.77%) were called active. Not shown: some 5% with an inconclusive outcome. Calls come from the whole dose curve; as a rule, active = well fitted inhibition curve with a large enough effect; inconclusive = small, poorly fitted or top-dose-only effect; inactive = flat fitted curve, though single readings scatter. The list shows a part of the results.

experiment: Acumen qHTS Assay for Inhibitors of the mTORC1 Signaling Pathway in MEF (Tsc2-/-, p53-/-) Cells: Sytravon; settings: phospho-rpS6 immunofluorescence/PI, 24 h; series mostly up to 38.3 µM; activity change, negative = inhibition: at the top concentration;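 note: plate controls were DMSO for no effect and rapamycin for full effect; nearly all actives have a fitted effect of over 50% in size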
In short: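 Cell-based qHTS: Tsc2-/- p53-/- MEF, 24 h cpd, 37 °C; fix/perm, anti-phospho-S6 Alexa-488 + PI; Acumen 488 nm scan; pS6/PI ratio, % positive cells; rapamycin 7.5 nM = inhibition ref; PI count = viability.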

Activity change, negative = inhibition, inactive:
COc1ccccc1NC(=O)CSc1nc(-c2ccccc2F)nc2cc(=O)[nH]n12 -0.541%, COc1ccc(NC(=O)c2c(NCc3cccc(OC)c3)sc3c2CCCC3)cc1 -10.6%, CC(C)(C)c1ccc(C(=O)N2CCC(c3nc4ccccc4o3)CC2)cc1 -12%, O=C(CCC1N=C2c3ccccc3N=C(SCc3ccccc3F)N2C1=O)NCc1ccc(F)cc1 (configuration not stated) 0.101%, Cc1ccc2occ(CC(=O)N(Cc3ccc(C(C)C)cc3)C3CCS(=O)(=O)C3)c2c1 (configuration not stated) -26.2%, CC1=C(c2ccc(Cl)cc2)S(=O)(=O)N=C1N1CCC(C(=O)NCc2ccccc2F)CC1 -28.3%, COc1ccc(CCNc2nc3c(-c4cccc(C)c4)nnn3c3ccccc23)cc1OC -21%, COc1ccc(S(=O)(=O)N(CC(=O)Nc2cccnc2)c2ccc(Cl)cc2)cc1 -3.72%, COc1ccc(CNC(=O)Cn2c(=O)cc(-c3ccccc3)c3c(C)nn(C)c32)cc1 -21.1%, COc1ccc(NC(=O)Cn2c(=O)ccc3cc(S(=O)(=O)N4CCCC4)ccc32)cc1Cl -0.758%, Clc1cccc(-n2ncc3c(NCCCn4ccnc4)ncnc32)c1 11.8%, CCc1ccc2oc(C(=O)Nc3ccccc3C(=O)OC)cc(=O)c2c1 5.71%, Cc1ccccc1NC(=O)c1c(C)oc2ccc(O)c(CN3CCN(C)CC3)c12 -3%, O=C(Nc1ccc(Cl)c(C(F)(F)F)c1)C1CCN(S(=O)(=O)c2cccc3nonc23)CC1 -6.83%, Cc1cccn2c(=O)c(C(=O)NCCc3ccc(S(N)(=O)=O)cc3)c(O)nc12 0.154%, Cc1ccccc1CSc1cn(CC(=O)N2CCCCCC2)c2ccccc12 -6.94%, CCCCn1c(NCc2ccc(N(C)C)cc2)nc2ccccc21 -14.4%, O=C(O)Cn1ccc2cc(S(=O)(=O)N3CCCCCC3)ccc21 1.7%, COc1ccc(CNC(=O)COCc2cc(-c3cccs3)on2)cc1 -6.92%, Cc1ccccc1CSc1nc2ccsc2c(=O)n1CCC(C)C -2.81%, Cc1ccc2cc(CN(C(=O)c3cccc(Cl)c3)c3ccccc3)c(=O)[nH]c2c1 -6.91%, CCCSCCCNC(=O)c1ccc2c(c1)sc1nc(-c3ccc(OCC)cc3)cn12 7.33%, COc1ccccc1NC(=O)c1oc2ccccc2c1NC(=O)C1CCCCC1 0.987%, CC1C(=O)N2CCCc3cc(S(=O)(=O)N4CCC(C(N)=O)CC4)cc1c32 (configuration not stated) -13%, COc1cccc(CNC(=O)c2cnc(N3CCCCC3)c3ccccc23)c1 -5.69%, O=C(NCc1ccccc1F)C1CCN(c2nn3cc(-c4ccc(F)cc4)nc3s2)CC1 -5.24%, CN1c2ccc(Cl)cc2-c2nc(SCC(=O)NCc3ccccc3)ncc2S1(=O)=O -4.95%, O=C(Nc1ccccc1C(F)(F)F)N1CCC(CN2CCc3ccccc3C2)CC1 0.721%, COc1ccc(C)cc1NC(=O)C(Cc1ccccc1)NS(=O)(=O)c1cccs1 (configuration not stated) -0.0739%, O=C(NC1CC(=O)N(c2cccc(F)c2)C1)c1cc2ccccc2o1 (configuration not stated) -15.3%, CCOC(=O)c1ccc(CN(Cc2ccccc2C)S(=O)(=O)c2ccc(F)c(C)c2)cc1 8.64%, COCCNc1oc(/C=C/c2ccc(F)cc2)nc1C#N -0.393%, COc1ccc(Nc2ncnc3c2cnn3-c2ccc(C)cc2)cc1Cl -15.7%, CCC(=O)N1CCc2cc(Br)cc(S(=O)(=O)CCC(=O)NCc3cccc(OC)c3)c21 -0.455%, Cc1ccc(-n2c(=O)c3c(cnn3C)n(CC(=O)Nc3ccccc3C)c2=O)cc1 -1.31%, Cc1ccc(CNC(=O)CCCn2c(=O)[nH]c3ccc(Br)cc3c2=O)cc1 -17.7%, Cc1cccc(Cn2cc(S(=O)(=O)c3cccc(C)c3)c(=O)c3cc(F)c(N4CCOCC4)cc32)c1 -3.38%, CCCCn1c(=NC(=O)c2cc3ccccc3o2)c(C(=O)OCC)cc2c(=O)n3ccccc3nc21 -8.24%, O=C(Cn1c(=O)oc2cc(S(=O)(=O)N3CCCCC3)ccc21)NCc1ccc(Cl)cc1 -8.78%, O=C(Oc1ccc(Cl)cc1)c1cc(-c2ccc3c(c2)OCCO3)on1 -5.25%, CCN(CC)CCNC(=O)Cn1nc(C)c2c(C)n(-c3ccccc3)nc2c1=O -3.33%, COc1ccc(Cn2ccnc2SCC(=O)NCc2ccco2)cc1 -0.818%, Cc1cccc(N2CCN(S(=O)(=O)c3ccc4c(c3)CC(=O)N4C)CC2)c1C -14.8%, COC(=O)c1ccccc1NC(=O)c1ccc2nc(CCc3ccccc3)oc2c1 1.42%, COc1cccc(-c2noc(COc3ccccc3Cl)n2)c1 0.73%, Cc1ccc(Cl)cc1NC(=O)CSc1nc2ccccc2nc1Cc1ccccc1 5%, COc1ccccc1N1CCN(CC(O)COc2cc(C)cc(C)c2)CC1 (configuration not stated) -0.828%, CCOc1ccc(N2C(=O)N(Cc3ccc(C)cc3C)c3ccccc3S2(=O)=O)cc1 0.0426%, COc1cccc(CNC(=O)CCCN2C(=O)CSc3c2c(C)nn3-c2ccccc2)c1 0%, COc1ccc(-c2ccc3c(N)c(C(=O)Nc4cc(F)ccc4C)sc3n2)cc1 -18%, Cc1cccc(Nc2c3c(nc4nncn24)CCC3)c1 -0.683%, CCn1cc(C(=O)N2CCN(c3cc(C)ccc3C)CC2)c(=O)c2cc(S(=O)(=O)N(C)C3CCCCC3)ccc21 -2.68%, Cc1ccc(-c2cc(C(=O)NCCc3ccccc3)c3c(-c4ccc(C)cc4)[nH]nc3n2)cc1 -2.84%, CCCCN1CCc2nc(N3CCN(c4ncccn4)CC3)ncc2C1 -5.08%, Cc1ccc(NC(=O)CSc2nc3c([nH]c4ccccc43)c(=O)n2-c2ccccc2)c(C)c1 -1.97%, CCN(c1ccccc1)S(=O)(=O)c1ccc(NC(=O)c2cc(=O)c3cc(C)c(C)cc3o2)cc1 1.96%, Cc1cccc(NS(=O)(=O)c2ccc3c(c2)CCN3C(=O)CCC(=O)O)c1C -3.59%, COc1cccc(-n2cc(C(=O)NCc3cccc(Cl)c3)c3ccccc3c2=O)c1 -4.68%, COc1ccc(S(=O)(=O)Nc2cc3c(cc2NCc2ccccc2)n(C)c(=O)n3C)cc1OC -14.2%, CCOc1ccc(C(=O)Nc2ccc3nc(SCc4ccccc4)sc3c2)cc1 -13%, CCOc1ccc(NC(=O)c2ccc(-c3ccccc3)s2)cc1 -0.0634%, Cc1nc2c(-c3ccc(F)cc3)c(C)nn2c(C)c1CCC(=O)NCc1ccc(Cl)cc1 0.295%
